Data from the supplement of paper PMC7826260.
This is one part of the list. One pool of 16,384 single-stranded DNAs met each Rep nickase domain in vitro for 1 h at 37 °C with 3 µM enzyme; only the middle of the 90-letter strands is printed. The score is log2 (uncut reads / reads without enzyme); strong cutting gives strongly negative numbers. There is no active / inactive call. Shares of all reads are compared; values above 0 arise when much of the pool is cut.

What was measured:
Experiment in all cases: uncleaved DNA left, log2 of reads against the no-enzyme library (log2 ratio); higher = less cleavage (more negative = more Rep cleavage of the k-mer); sequences stand for … in CTCGTCCG…ACCGGAGA
[1] = tested on: T1, Rep nickase domain of Muscovy duck circovirus
T1 sequence (residues 1-111 of Rep, tag left off): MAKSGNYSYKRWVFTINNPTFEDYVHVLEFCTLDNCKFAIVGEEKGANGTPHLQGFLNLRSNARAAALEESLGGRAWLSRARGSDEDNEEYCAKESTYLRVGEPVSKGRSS
Description: (§1)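 A pool of 90-nt single-stranded DNAs with seven random bases just before the constant AC of the nick site (name = the seven bases) was cut by 3 µM recombinant His6-SUMO-tagged Rep nickase domain (300 nM DNA, 50 mM HEPES pH 8.0, 50 mM NaCl, 1 mM MnCl2, 1 h, 37 °C, three replicates). Uncut DNA was amplified and sequenced.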

[2] = tested on: T2, Rep nickase domain of banana bunchy top virus
T2 sequence (residues 1-94 of Rep, tag left off): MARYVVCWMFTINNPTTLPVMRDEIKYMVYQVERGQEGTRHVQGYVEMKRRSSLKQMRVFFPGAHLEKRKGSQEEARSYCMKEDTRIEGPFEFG
Description: as §1

[3] = tested on: T3, Rep nickase domain of cabbage leaf curl virus
T3 sequence (residues 1-116 of Rep, tag left off): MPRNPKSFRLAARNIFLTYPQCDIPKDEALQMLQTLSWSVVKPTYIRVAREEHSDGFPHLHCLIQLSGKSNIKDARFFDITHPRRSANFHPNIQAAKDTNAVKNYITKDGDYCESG
Description: as §1

[4] = tested on: T4, Rep nickase domain of chickpea chlorotic dwarf virus
T4 sequence (residues 1-124 of Rep, tag left off): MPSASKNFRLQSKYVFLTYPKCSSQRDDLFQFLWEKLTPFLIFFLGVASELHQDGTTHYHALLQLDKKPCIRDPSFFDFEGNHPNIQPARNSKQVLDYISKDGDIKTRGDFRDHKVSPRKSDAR
Description: as §1

[5] = tested on: T5, Rep nickase domain of faba bean necrotic yellows virus
T5 sequence (residues 1-98 of Rep, tag left off): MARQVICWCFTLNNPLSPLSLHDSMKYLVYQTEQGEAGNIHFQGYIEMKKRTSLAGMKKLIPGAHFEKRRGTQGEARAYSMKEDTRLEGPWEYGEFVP
Description: as §1

[6] = tested on: T6, Rep nickase domain of maize striate mosaic virus
T6 sequence (residues 1-117 of Rep, tag left off): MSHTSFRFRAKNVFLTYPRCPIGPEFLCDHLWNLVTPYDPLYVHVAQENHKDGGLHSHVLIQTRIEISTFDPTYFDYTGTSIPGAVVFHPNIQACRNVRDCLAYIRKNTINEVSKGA
Description: as §1

[7] = tested on: T7, Rep nickase domain of porcine circovirus 2
T7 sequence (residues 2-116 of Rep, tag left off): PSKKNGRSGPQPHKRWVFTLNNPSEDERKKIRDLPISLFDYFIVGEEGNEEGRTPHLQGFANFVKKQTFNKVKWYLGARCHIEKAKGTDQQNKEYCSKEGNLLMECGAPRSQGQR
Description: as §1

[8] = tested on: T8, Rep nickase domain of tomato golden mosaic virus
T8 sequence (residues 1-124 of Rep, tag left off): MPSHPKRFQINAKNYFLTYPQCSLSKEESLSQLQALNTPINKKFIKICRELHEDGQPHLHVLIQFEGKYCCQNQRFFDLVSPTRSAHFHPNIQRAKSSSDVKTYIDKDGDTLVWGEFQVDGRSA
Description: as §1

[9] = tested on: T9, Rep nickase domain of tomato yellow leaf curl virus
T9 sequence (residues 1-136 of Rep, tag left off): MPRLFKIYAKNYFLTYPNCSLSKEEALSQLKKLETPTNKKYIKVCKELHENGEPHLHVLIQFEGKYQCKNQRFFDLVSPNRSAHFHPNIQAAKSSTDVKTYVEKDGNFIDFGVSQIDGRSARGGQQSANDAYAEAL
Description: as §1

[10] = tested on: T10, Rep nickase domain of wheat dwarf virus
T10 sequence (residues 1-137 of Rep, tag left off): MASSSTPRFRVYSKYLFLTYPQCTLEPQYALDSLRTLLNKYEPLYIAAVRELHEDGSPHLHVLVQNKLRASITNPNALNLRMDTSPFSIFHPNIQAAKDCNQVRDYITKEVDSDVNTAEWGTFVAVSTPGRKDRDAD
Description: as §1

| Sequence | uncleaved DNA left (log2) [1] | uncleaved DNA left (log2) [2] | uncleaved DNA left (log2) [3] | uncleaved DNA left (log2) [4] | uncleaved DNA left (log2) [5] | uncleaved DNA left (log2) [6] | uncleaved DNA left (log2) [7] | uncleaved DNA left (log2) [8] | uncleaved DNA left (log2) [9] | uncleaved DNA left (log2) [10] |
| --- | --- | --- | --- | --- | --- | --- | --- | --- | --- | --- |
| ATGTCGG | 0.124 | 0.0749 | 0.463 | 1.13 | -0.0514 | 1.26 | 0.184 | 0.0744 | -0.0989 | 0.0657 |
| TATATGC | 0.0321 | -0.0104 | -0.554 | -0.532 | 0.0243 | -1.13 | 0.128 | -0.0322 | 0.0611 | 0.0203 |
| TGTGAGC | 0.0597 | -0.00291 | 0.0388 | 0.0293 | -0.0558 | -0.426 | -0.0189 | -0.0488 | -0.205 | -0.102 |
| AGCATCG | 0.0838 | 0.0803 | -0.535 | -0.474 | 0.0378 | -1.06 | 0.261 | 0.0819 | 0.058 | 0.00585 |
| GCCCCTT | 0.3 | 0.15 | 0.422 | -0.264 | 0.0901 | 0.721 | -0.137 | 0.055 | 0.0975 | 0.245 |
| TTACGGC | 0.0758 | 0.015 | 0.268 | -0.33 | 0.1 | 0.00645 | 0.125 | 0.0265 | 0.0312 | -0.0347 |
| TAACGAG | -0.0346 | -0.0151 | -0.316 | -0.643 | -0.0466 | -0.893 | 0.117 | -0.148 | -0.0971 | -0.0114 |
| GCAATGG | 0.0893 | 0.0458 | 0.116 | 0.99 | 0.0195 | 0.556 | 0.115 | 0.13 | -0.00573 | -0.0221 |
| CCAAAGA | 0.0265 | 0.0586 | -0.0547 | -0.163 | 0.136 | -0.964 | 0.0979 | 0.132 | -0.0236 | 0.123 |
| GTACAAA | 0.0362 | 0.0889 | 0.317 | 0.862 | 0.0209 | 1.57 | 0.0385 | 0.132 | 0.148 | 0.171 |
| TAATCCA | -1.37 | 0.0379 | -2.84 | -2.58 | 0.0817 | -2.42 | -2.09 | -2.92 | -0.00481 | -2.85 |
| TCAGCAT | 0.0828 | -0.175 | 0.0416 | 0.00428 | -0.0858 | -0.23 | 0.0689 | -0.0872 | 0.0837 | -0.0367 |
| AGCTCTA | -0.0131 | 0.0317 | -0.0148 | -0.17 | -0.0482 | 0.341 | -0.871 | 0.0697 | 0.0992 | 0.208 |
| AGCAGTA | -0.0531 | 0.0128 | -0.06 | -0.187 | 0.0666 | 0.246 | -0.674 | -0.102 | -0.00167 | 0.0994 |
| GCCCAAG | -0.0166 | 0.103 | -0.367 | -0.215 | 0.0137 | -0.768 | 0.335 | 0.172 | 0.0664 | -0.0465 |
| GCCTTGT | -0.0358 | -0.108 | 0.012 | 0.27 | -0.0326 | -0.274 | -0.174 | 0.00783 | 0.0475 | -0.152 |
| AATTTCA | -2.8 | -0.859 | -0.509 | -2.61 | -0.0861 | -0.814 | -2.95 | -0.0852 | -0.0707 | -0.15 |
| GATCGCT | -0.0276 | -0.0815 | -0.238 | -0.765 | -0.0427 | -0.447 | -0.258 | -0.195 | -0.0677 | -0.0197 |
| CGTAATA | -0.036 | -0.0639 | -0.106 | -1.12 | -0.0942 | -0.325 | -0.0759 | -0.0142 | -0.00895 | -0.0816 |
| CATTAAA | 0.0089 | -0.176 | -0.0817 | -0.679 | 0.0225 | -0.966 | -0.0867 | 0.132 | -0.037 | 0.0658 |
| TGATCTG | -0.0815 | -0.0318 | -0.00576 | 0.593 | -0.0646 | 1.44 | 0.0789 | -0.0815 | -0.0895 | 0.0463 |
| CTATGCC | 0.126 | -0.0679 | -0.316 | -0.55 | 0.0752 | -1.03 | -0.335 | 0.00914 | 0.0714 | -0.0644 |
| CAAATAG | 0.0709 | -0.0361 | -0.704 | -0.442 | 0.0509 | -1.02 | 0.231 | 0.0381 | 0.0534 | 0.00736 |
| CAACTAG | -0.0285 | 0.00196 | -0.813 | -0.857 | 0.0225 | -1.1 | 0.0523 | -0.0869 | 0.053 | -0.188 |
| TCCGGAC | -0.169 | 0.0165 | 0.312 | 0.969 | -0.11 | 1.16 | -0.0185 | -0.059 | -0.035 | -0.0683 |
| CGTGTTA | -0.0789 | 0.0583 | 0.0909 | 0.138 | 0.0413 | 1.11 | -0.105 | 0.141 | 0.0619 | -0.0719 |
| TCGGGGA | 0.0619 | -0.072 | 0.625 | 0.956 | -0.0342 | 1.93 | -0.0054 | -0.135 | -0.107 | -0.00898 |
| ACGAGAC | 0.0381 | -0.0352 | 0.374 | 0.852 | 0.00698 | 0.0405 | 0.228 | 0.169 | -0.0009 | 0.0711 |
| AACGAGG | 0.219 | 0.112 | 0.361 | 0.996 | 0.0504 | 0.782 | 0.339 | 0.245 | 0.0941 | 0.168 |
| CCGAACG | 0.0102 | -0.134 | -0.678 | -0.379 | -0.108 | -1.05 | 0.21 | -0.0545 | -0.101 | -0.264 |
